{
  "source": "paper PMC12136788",
  "binders": {"B1": {"name": "chrX:100910778:100910779:-_ENSG00000184867_ENST00000356824|hu_hu|FALSE|FALSE (ssRNA)", "RNA": "GGGAGUUCUACAGUCCGACGAUCAACACACACUCCAGAUGUAGUGCAUAAGUAAAAAAGGGAACCUUUAUUGAAUUCUCUAUAGUUAAACACUUCUGCUCUGAGAUUGUCAUAGAUAAUCUCAAAUAGAGUAAGGGCAUUAAUCAACAGAGGAUUGAGCAUCA"}, "B2": {"name": "chr4:140556289:140556290:+_ENSMUSG00000036622_ENSMUST00000037055|mus_mus|mus_mus_mus_hu_False|18_78 (ssRNA)", "RNA": "GGGAGUUCUACAGUCCGACGAUCGAUGGAGCUCACCAGGCCCCCUUUUGCCGUGCAGAACCCUGUCCGGGUCACCACUGCCAGGACGUGCGGUCCCACAUAGGCCCGGGCCUGCAAAAUGAGGGUGCCGCAGAAGAGUGUGUGCAACAGAGGAUUGAGCAUCA"}, "B3": {"name": "chr17:64801638:64801639:+_ENSG00000154229_ENST00000413366|hu_mus|hu_hu_hu_mus_False|78_108 (ssRNA)", "RNA": "GGGAGUUCUACAGUCCGACGAUCUAUAAAUACAUAUACAUAUGUACACAUAUAUAGUAAGAGCCUAGUUAAACGUGUAAAGUAGCCAUUCAUUUUUAAAAUUACAUCUACAUUAAAAAAUUAAUAUAUCUGAUAGAGUGCCAGCAACAGAGGAUUGAGCAUCA"}, "B4": {"name": "chr21:38595834:38595835:-_ENSG00000157538_ENST00000309117|hu_hu|motif|central (ssRNA)", "RNA": "GGGAGUUCUACAGUCCGACGAUCCAUUAAAAAUGGUUUCUUCCUUUAAAAUUUCCCAGAAAGUGUGGCCUCUGUUUUCUGCGGCUCAGUUUAAACACAUCAUCAAGGAUAGAUAAUUAAUGUCAGGUGAGCAUAAAAGGAGAUCAACAGAGGAUUGAGCAUCA"}, "B5": {"name": "chr1:213302989:213302990:+_ENSG00000136643_ENST00000366960|hu_hu|FALSE|FALSE (ssRNA)", "RNA": "GGGAGUUCUACAGUCCGACGAUCAGAAGCAACAGCCCCUAGUGCUGAAGAAUCCGAAGAAAGAUUGAGACCAAAAGUUCUAAUGGGAGAAUUUUGAUUGGAAGCCAUUCCAUCAUCUAACUCAGCAAGAGAAUCCACAUCAACCAACAGAGGAUUGAGCAUCA"}, "B6": {"name": "chr5:67074945:67074946:+_ENSMUSG00000029223_ENSMUST00000031131|mus_mus|FALSE|FALSE (ssRNA)", "RNA": "GGGAGUUCUACAGUCCGACGAUCUCGCCCAUCGAGCUCGUACAGAUGGCCGUCCACGUUGUUGAACAGAAUAAAAUGGAAAUUCACUUUGUCAUCUACCCGACACUGGCCCUCCUGGGCCACGGAGUCAUGGGCCGCCUGGAUCAACAGAGGAUUGAGCAUCA"}, "B7": {"name": "chr7:155493584:155493585:+_ENSG00000184863_ENST00000401878|hu_hu|motif|central (ssRNA)", "RNA": "GGGAGUUCUACAGUCCGACGAUCUGAAAGCUCCAAAGUUUCUGGAAUGUUCCUUCUCUCUCUAGUUACAUCUGAGAGCCGGAUAAUUGUUCCUUCUUUCCUUUCAGUUUUGAAACGUAAUCGUCCAGAUUCUUCAUCAUCUUCCAACAGAGGAUUGAGCAUCA"}, "B8": {"name": "101276289_101276409_1697_CDS_ENSG00000034677_ENST00000519449|human|control|control (ssRNA)", "RNA": "GGGAGUUCUACAGUCCGACGAUCUAUAUCAUUUUCAUCAUCAAAUUCAAUCCUAACUCCUUUUCCAUUGCCUGCUGAGACUCCACAACCUCCGCUUCGACAAAGAGAAAUUGGAACUACGCCAUAGACAUAAGCUAACAUAAUCAACAGAGGAUUGAGCAUCA"}, "B9": {"name": "chr2:202488911:202488912:-_ENSG00000155755_ENST00000286196|hu_mus|hu_hu_hu_mus_False|38_48 (ssRNA)", "RNA": "GGGAGUUCUACAGUCCGACGAUCAUUGAAACAUUUUUCAUAAUCUCCAGUAGCAUUUCAGCAUUAUGUAACAAAAGCUCAAUUGUAAAUACACAUGUAUACAUCUUAUACACUUAAAAACACGAGUGGGGAGCGCAGGCGCCACAACAGAGGAUUGAGCAUCA"}, "B10": {"name": "chr11:52220846:52220847:+_ENSMUSG00000036275_ENSMUST00000036952|mus_mus|FALSE|FALSE (ssRNA)", "RNA": "GGGAGUUCUACAGUCCGACGAUCGGGCCUUUCAAAGGGAACACUGCUGCCAGAGGCACAAUAAAUGGAAAAUAAUAAGAACUACACCAAAGGAUAAAGUAAUGUUUAACUCACAUUUCAGACACCUGAUUGAAUCUAGCUCUACAACAGAGGAUUGAGCAUCA"}, "B11": {"name": "125816376_125816496_1655_3pUTR_ENSMUSG00000042608_ENSMUST00000094761|mouse|control|control (ssRNA)", "RNA": "GGGAGUUCUACAGUCCGACGAUCAUUCUCAGAUAAAAAAACAAUCAAGCAAUCAUCCCAAAAGGUAGCUCUGUGGUACCUCUGUUGACCCUGGCUGUGACCUGGGCUGUCCCUAUCCCUGCCCUAUCCCUACUGCAGCCUGGGCAACAGAGGAUUGAGCAUCA"}, "B12": {"name": "chr1:100327937:100327938:+_ENSG00000162688_ENST00000361915|hu_hu|FALSE|FALSE (ssRNA)", "RNA": "GGGAGUUCUACAGUCCGACGAUCUUCUUUUGCAACCCUAAGUCUGCUUUCCCAUUCAUCAAAAGGUCCCAAACACUUAGCUAAAAAUGUCUGAAGAGUAACACAGUCCAAGGGUAGCACAUGAUUAUCAGCACCAACACGUAACAACAGAGGAUUGAGCAUCA"}, "B13": {"name": "chr17:65740002:65740003:+_ENSG00000130935_ENST00000581375|hu_hu|hu_hu_hu_mus_False|18_88 (ssRNA)", "RNA": "GGGAGUUCUACAGUCCGACGAUCAACAAAUCUUUCUUCCCUGGACGCAAGAGUUCAUUCAUAUUAAAAAAAAUAUAUAUCCAUCAAGUUAGGUGUGGUGGCCACACCUUUACUCCCCACUUCAAUUGAGGUGGAUCUCUGAGUCAACAGAGGAUUGAGCAUCA"}, "B14": {"name": "chr9:70551142:70551143:+_ENSMUSG00000054693_ENSMUST00000067880|mus_mus|motif|central (ssRNA)", "RNA": "GGGAGUUCUACAGUCCGACGAUCACGCUGGUGUUUUUGGUGUAAUGAAUCCACAUUGUAAGAUAAUCCUUCAUAAUGUCGGAUAUAUUUAUUUAAAGGAUUUCCAUACUGACCUCCCAGCCCCGCCGCCCAGGAGAGGAGCAGCAACAGAGGAUUGAGCAUCA"}},
  "note": "The other results are listed elsewhere or left out.",
  "data": [
    {"biological_target": "T1, UNK ZnF1-3 (human, UniProt Q9C0B0 31-174)", "T1 sequence": "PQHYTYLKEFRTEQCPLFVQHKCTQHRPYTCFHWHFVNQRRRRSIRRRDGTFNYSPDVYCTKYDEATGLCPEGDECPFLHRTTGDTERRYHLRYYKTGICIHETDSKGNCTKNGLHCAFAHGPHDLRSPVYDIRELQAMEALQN", "assay": "nsRBNS (natural sequence RNA bind-n-seq); RBNS binding buffer (assumed for nsRBNS): 25 mM Tris pH 7.5, 150 mM KCl, 3 mM MgCl2, 0.01% Triton X-100, 500 ug/ml BSA, 20 U/ml SUPERase-In, 4 C; UNK is unkempt and MSI1 is Musashi-1; names of the RNAs are library labels; protein concentration not given here; high values mean tight binding", "units": {"binding signal": "enrichment R"}, "values": [
      {"binder": "B1", "binding signal": 0.694},
      {"binder": "B2", "binding signal": 1.23},
      {"binder": "B3", "binding signal": 2.15},
      {"binder": "B4", "binding signal": 1.39},
      {"binder": "B5", "binding signal": 2.3},
      {"binder": "B6", "binding signal": 0.99},
      {"binder": "B7", "binding signal": 0.486},
      {"binder": "B8", "binding signal": 1.19},
      {"binder": "B9", "binding signal": 0.898},
      {"binder": "B10", "binding signal": 2.06},
      {"binder": "B11", "binding signal": 1.27},
      {"binder": "B12", "binding signal": 1.32},
      {"binder": "B13", "binding signal": 0.926},
      {"binder": "B14", "binding signal": 1.56}
    ]}
  ]
}
